B1: EphA4 ΔSAM mutant (lacking […]) fused to C-terminal mTURQ or EYFP (receptor, human)
chain: [letters of about 200 residues left out]NLAQFPDTITGADTSSLVEVRGSCVNNSEEKDVPKMYCGADGEWLVPIGNCLCNAGHEERSGECQACKIGYYKALSTDATCAKCPPHSYSVWEGATSCTCDRGFFRADNDAASMPC[letters of about 200 residues left out]VLLVSVSGSVVLVVILIAAFVISRRRSKYSKAKQEADEEKHLNQGVRTYVDPFTYEDPNQAVREFAKEIDASCIKIEKVIGVGEFGEVCSGRLKVPGKREICVAIKTLKAGYTDKQRRDFLSEASIMGQFDHPNIIHLEGVVTKCKPVMIITEYMENGSLDAFLRKNDGRFTVIQLVGMLRGIGSGMKYLSDMSYVHRDLAARNILVNSNLVCKVSDFGMSRVLEDDPEAAYTTRGGKIPIRWTAPEAIAYRKFTSASDVWSYGIVMWEVMSYGERPYWDMSNQDVIKAIEEGYRLPPPMDCPIALHQLMLDCWQKERSDRPKFGQIVNMLDKLIRNPNSLKRTGTESSRPNTALLDPSSPEVPV
notes: EphA4, human, cDNA GenBank NM_001304536.2, lacking […], corresponding to the SAM domain; source: HEK293T, transiently cotransfected, in the plasma membrane of live cells; not shown: mTURQ (on one copy), C-terminal, kept; EYFP (on the other copy), C-terminal, kept
B2: EphA4 L920F mutant fused to C-terminal mTURQ or EYFP (receptor, human)
chain: [letters of about 200 residues left out]NLAQFPDTITGADTSSLVEVRGSCVNNSEEKDVPKMYCGADGEWLVPIGNCLCNAGHEERSGECQACKIGYYKALSTDATCAKCPPHSYSVWEGATSCTCDRGFFRADNDAASMPC[letters of about 200 residues left out]VLLVSVSGSVVLVVILIAAFVISRRRSKYSKAKQEADEEKHLNQGVRTYVDPFTYEDPNQAVREFAKEIDASCIKIEKVIGVGEFGEVCSGRLKVPGKREICVAIKTLKAGYTDKQRRDFLSEASIMGQFDHPNIIHLEGVVTKCKPVMIITEYMENGSLDAFLRKNDGRFTVIQLVGMLRGIGSGMKYLSDMSYVHRDLAARNILVNSNLVCKVSDFGMSRVLEDDPEAAYTTRGGKIPIRWTAPEAIAYRKFTSASDVWSYGIVMWEVMSYGERPYWDMSNQDVIKAIEEGYRLPPPMDCPIALHQLMLDCWQKERSDRPKFGQIVNMLDKLIRNPNSLKRTGTESSRPNTALLDPSSPEFSAVVSVGDWFQAIKMDRYKDNFTAAGYTTLEAVVHVNQEDLARIGITAITHQNKILSSVQAMRTQMQQMHGRMVPV
notes: EphA4, human, cDNA GenBank NM_001304536.2, with the melanoma mutation L920F; source: HEK293T, transiently cotransfected, in the plasma membrane of live cells; not shown: mTURQ via a (GGS)5 linker (on one copy), C-terminal, kept; EYFP via a (GGS)5 linker (on the other copy), C-terminal, kept
B3: EphA4 H945E mutant fused to C-terminal mTURQ or EYFP (receptor, human)
chain: [letters of about 200 residues left out]NLAQFPDTITGADTSSLVEVRGSCVNNSEEKDVPKMYCGADGEWLVPIGNCLCNAGHEERSGECQACKIGYYKALSTDATCAKCPPHSYSVWEGATSCTCDRGFFRADNDAASMPC[letters of about 200 residues left out]VLLVSVSGSVVLVVILIAAFVISRRRSKYSKAKQEADEEKHLNQGVRTYVDPFTYEDPNQAVREFAKEIDASCIKIEKVIGVGEFGEVCSGRLKVPGKREICVAIKTLKAGYTDKQRRDFLSEASIMGQFDHPNIIHLEGVVTKCKPVMIITEYMENGSLDAFLRKNDGRFTVIQLVGMLRGIGSGMKYLSDMSYVHRDLAARNILVNSNLVCKVSDFGMSRVLEDDPEAAYTTRGGKIPIRWTAPEAIAYRKFTSASDVWSYGIVMWEVMSYGERPYWDMSNQDVIKAIEEGYRLPPPMDCPIALHQLMLDCWQKERSDRPKFGQIVNMLDKLIRNPNSLKRTGTESSRPNTALLDPSSPEFSAVVSVGDWLQAIKMDRYKDNFTAAGYTTLEAVVEVNQEDLARIGITAITHQNKILSSVQAMRTQMQQMHGRMVPV
notes: EphA4, human, cDNA GenBank NM_001304536.2, with H945E; source: HEK293T, transiently cotransfected, in the plasma membrane of live cells; not shown: mTURQ via a (GGS)5 linker (on one copy), C-terminal, kept; EYFP via a (GGS)5 linker (on the other copy), C-terminal, kept
B4: EphA4 L920F-H945E double mutant fused to C-terminal mTURQ or EYFP (receptor, human)
chain: [letters of about 200 residues left out]NLAQFPDTITGADTSSLVEVRGSCVNNSEEKDVPKMYCGADGEWLVPIGNCLCNAGHEERSGECQACKIGYYKALSTDATCAKCPPHSYSVWEGATSCTCDRGFFRADNDAASMPC[letters of about 200 residues left out]VLLVSVSGSVVLVVILIAAFVISRRRSKYSKAKQEADEEKHLNQGVRTYVDPFTYEDPNQAVREFAKEIDASCIKIEKVIGVGEFGEVCSGRLKVPGKREICVAIKTLKAGYTDKQRRDFLSEASIMGQFDHPNIIHLEGVVTKCKPVMIITEYMENGSLDAFLRKNDGRFTVIQLVGMLRGIGSGMKYLSDMSYVHRDLAARNILVNSNLVCKVSDFGMSRVLEDDPEAAYTTRGGKIPIRWTAPEAIAYRKFTSASDVWSYGIVMWEVMSYGERPYWDMSNQDVIKAIEEGYRLPPPMDCPIALHQLMLDCWQKERSDRPKFGQIVNMLDKLIRNPNSLKRTGTESSRPNTALLDPSSPEFSAVVSVGDWFQAIKMDRYKDNFTAAGYTTLEAVVEVNQEDLARIGITAITHQNKILSSVQAMRTQMQQMHGRMVPV
notes: EphA4, human, cDNA GenBank NM_001304536.2, with L920F and H945E; source: HEK293T, transiently cotransfected, in the plasma membrane of live cells; not shown: mTURQ via a (GGS)5 linker (on one copy), C-terminal, kept; EYFP via a (GGS)5 linker (on the other copy), C-terminal, kept
B5: EphA2 L913F mutant tagged with mTURQ or EYFP (receptor, human)
chain: [letters of about 500 residues left out]IGGVAVGVVLLLVLAGVGFFIHRRRKNQRARQSPEDVYFSKSEQLKPLKTYVDPHTYEDPNQAVLKFTTEIHPSCVTRQKVIGAGEFGEVYKGMLKTSSGKKEVPVAIKTLKAGYTEKQRVDFLGEAGIMGQFSHHNIIRLEGVISKYKPMMIITEYMENGALDKFLREKDGEFSVLQLVGMLRGIAAGMKYLANMNYVHRDLAARNILVNSNLVCKVSDFGLSRVLEDDPEATYTTSGGKIPIRWTAPEAISYRKFTSASDVWSFGIVMWEVMTYGERPYWELSNHEVMKAINDGFRLPTPMDCPSAIYQLMMQCWQQERARRPKFADIVSILDKLIRAPDSLKTLADFDPRVSIRLPSTSGSEGVPFRTVSEWFESIKMQQYTEHFMAAGYTAIEKVVQMTNDDIKRIGVRLPGHQKRIAYSLLGLKDQVNTVGIPI
notes: EphA2, human, cDNA GenBank NM_004431.5, with L913F (the residue that corresponds to L920 of EphA4); also called EphA2 L913F-mTURQ; EphA2 L913F-EYFP; source: HEK293T, transiently cotransfected, in the plasma membrane of live cells

Columns and labels:
[1] = target: the molecule itself; test: FRET or BRET; FSI-FRET of mTURQ- and EYFP-tagged receptor in the plasma membrane of live HEK293T cells, no ligand, hypo-osmotic medium; fit of a monomer-dimer equilibrium (Equation 2): dimer to monomers; constants in two-dimensional concentration
[2] = target: the molecule itself; test: FRET or BRET; FSI-FRET as without ligand but with 0.5 μg/ml ephrinA5-Fc in the hypo-osmotic medium; monomer-trimer equilibrium; apparent dissociation constant = receptor concentration at 50% oligomeric fraction
[3] = target: the molecule itself; test: FRET or BRET; FSI-FRET of mTURQ- and EYFP-tagged receptor in the plasma membrane of live HEK293T cells, no ligand, hypo-osmotic medium; fit of a monomer-trimer equilibrium (Equation 5); apparent dissociation constant = receptor concentration at which 50% of the receptors are in oligomers

Protein | stoichiometry N [1] | further results
B1 | 2 | –
B2 | – | stoichiometry N [2]: 3
B3 | 2 | –
B4 | – | stoichiometry N [3]: 3
B5 | 2 | –
